Assay results reported in publication PMC4466884.
Results are given in words; binding and its absence hold for the method and conditions named. Some binding calls cover weakened binding; strength is not graded here. For some assays here: Tags and fused reporters may be left off the sequences shown.

Chains of the proteins cited; added tags and fusions are not shown.
UniProt Q96RS0: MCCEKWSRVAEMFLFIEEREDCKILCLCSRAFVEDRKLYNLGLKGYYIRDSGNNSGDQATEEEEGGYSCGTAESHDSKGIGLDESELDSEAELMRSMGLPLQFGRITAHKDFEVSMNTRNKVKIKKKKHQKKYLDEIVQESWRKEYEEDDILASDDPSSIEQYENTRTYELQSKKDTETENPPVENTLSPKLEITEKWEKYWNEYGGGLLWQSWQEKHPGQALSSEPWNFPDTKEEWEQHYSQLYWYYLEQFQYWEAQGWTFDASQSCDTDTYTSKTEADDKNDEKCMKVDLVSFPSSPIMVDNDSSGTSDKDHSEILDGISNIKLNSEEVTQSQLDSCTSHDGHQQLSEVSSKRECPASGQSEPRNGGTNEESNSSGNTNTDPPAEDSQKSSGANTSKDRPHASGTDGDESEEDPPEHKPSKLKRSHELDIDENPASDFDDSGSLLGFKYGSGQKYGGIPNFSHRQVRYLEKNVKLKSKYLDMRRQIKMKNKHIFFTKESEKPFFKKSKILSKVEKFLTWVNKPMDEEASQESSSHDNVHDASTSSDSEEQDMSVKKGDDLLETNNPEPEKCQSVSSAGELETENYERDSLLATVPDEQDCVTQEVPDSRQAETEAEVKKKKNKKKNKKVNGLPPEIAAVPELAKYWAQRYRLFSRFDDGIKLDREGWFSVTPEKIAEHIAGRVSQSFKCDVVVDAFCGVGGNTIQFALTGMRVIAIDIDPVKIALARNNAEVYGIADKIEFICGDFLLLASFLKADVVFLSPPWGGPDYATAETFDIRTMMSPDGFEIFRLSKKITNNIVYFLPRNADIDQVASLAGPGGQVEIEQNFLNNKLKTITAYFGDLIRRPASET

Columns and labels:
[1] = target: human Tgs1p, full-length (aa1-853), yeast two-hybrid fusion (human) (UniProt Q96RS0); assay: two-hybrid; GAL4-BD baits (pGBKT7) and GAL4-AD preys (pGADT7) co-transformed into reporter strain PJ69-4A; 10-fold serial dilutions spotted on SDC-Trp-Leu and SDC-Trp-Leu-His (HIS3 reporter), 30 °C
[2] = target: T1, Swm2p (synthetic with Mud2), yeast two-hybrid fusion (S. cerevisiae) (UniProt P40342); assay: as above
T1 sequence: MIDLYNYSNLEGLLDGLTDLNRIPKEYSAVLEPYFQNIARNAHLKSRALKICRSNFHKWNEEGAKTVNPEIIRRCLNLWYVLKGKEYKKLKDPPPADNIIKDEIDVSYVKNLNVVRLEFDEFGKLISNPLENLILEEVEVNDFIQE

binding [1]: binds
binding [2]: no binding
Substance: human Tgs1p, full-length (aa1-853), yeast two-hybrid fusion (from UniProt Q96RS0 1-853)
